Results published in the BET-seq Pho4 binding data (Le et al. 2018).
This is one part of the list. Values were computed here from the reads of four pooled replicates and scatter widely.

Target: T1, Pho4 (S. cerevisiae) (UniProt P07270)
T1 sequence: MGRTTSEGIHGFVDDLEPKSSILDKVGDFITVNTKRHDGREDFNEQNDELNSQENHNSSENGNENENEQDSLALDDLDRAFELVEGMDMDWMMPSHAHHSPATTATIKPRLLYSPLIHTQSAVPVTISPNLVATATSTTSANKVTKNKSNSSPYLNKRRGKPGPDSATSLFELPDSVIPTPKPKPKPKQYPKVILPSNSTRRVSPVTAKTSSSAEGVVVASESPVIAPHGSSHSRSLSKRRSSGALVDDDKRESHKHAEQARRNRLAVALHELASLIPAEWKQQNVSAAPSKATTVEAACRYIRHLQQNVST
Assay: relative binding free energy (BET-seq); higher = weaker binding
Conditions: reference: library average

Sequence	relative binding free energy [kcal/mol]
AGGTGCACGTGGCATA	-0.19
GTGGGCACGTGCTGAT	0.06
ATATTCACGTGCAGTT	0.1
ATAAGCACGTGAGAGT	0.18
GCTAGCACGTGGTTGG	0.06
ATTAACACGTGTAAAT	0.27
TTCAGCACGTGTTTAT	-0.01
AATTTCACGTGATGGG	0.32
TTTGGCACGTGGGTTA	-0.12
TTGGGCACGTGATGAG	0.07
TGTACCACGTGGTCGT	-0.2
TTGTACACGTGTTAGT	0.05
TGGATCACGTGGGTTC	0.04
TAAATCACGTGAGGGT	0.22
GTTGGCACGTGTGTTA	0.08
TGACTCACGTGCGTGG	0.07
TGATGCACGTGGGCAG	-0.28
GTGTGCACGTGTCTCG	0.03
AGGGGCACGTGAGTTT	0.11
GGAAGCACGTGGGTGC	-0.23
AGTTGCACGTGACGTT	0.05
CGTGTCACGTGGGTGG	0.02
TTTAACACGTGAGCGG	0.09
TCGTACACGTGGTAGT	-0.1
GGAATCACGTGATTGG	0.45

Sequence	relative binding free energy [kcal/mol]
CGAGACACGTGTTAGT	0.1
GCGTTCACGTGTGTGC	0.15
AGCGGCACGTGGCGAT	-0.04
ATGTTCACGTGATCAT	0.24
AAAGCCACGTGGGGTT	-0.28
TGTCGCACGTGTGGTA	-0.09
ATTTTCACGTGTAGTC	0.27
TCTTGCACGTGGGTTC	-0.13
AAAGTCACGTGGAGCG	0.22
AAGTTCACGTGTTGCT	0.21
TTGTTCACGTGCGGCA	0.2
TTTATCACGTGTCGTA	0.19
TCTGGCACGTGATTTT	-0.01
GGGTACACGTGGTCGG	0.03
GTGGTCACGTGAGGTC	0.22
AAAAGCACGTGATGTT	0.05
GGGTTCACGTGGAAAA	0.36
GCGGACACGTGGGTTT	0
GTATACACGTGAGGCG	0.3
AGTGGCACGTGAAAAG	0.06
AGGTTCACGTGGCGTG	0.22
TCTGTCACGTGTGTTC	0.01
TGTTGCACGTGGTAAT	-0.03
ATCGGCACGTGAGGAT	0.21
TGGTTCACGTGTGTAC	0.11

Sequence	relative binding free energy [kcal/mol]
TAGTTCACGTGGTGTA	0.07
TTTATCACGTGGTATT	0.14
TTGGGCACGTGGGATT	-0.1
CTCTACACGTGGTGGG	-0.03
GGTGTCACGTGTGGCC	0.23
TGGCTCACGTGCGGTT	0.27
ATGTCCACGTGGAGTT	0.09
TGAATCACGTGGGGTT	0.06
TCTTACACGTGTGCGG	0.18
TTCATCACGTGGGGCA	0.08
TTAAGCACGTGTTATG	-0.16
GTAGGCACGTGCGGGC	-0.31
GTCGTCACGTGGTCGT	-0.05
TTGCCCACGTGTGTGG	-0.13
AGCTTCACGTGTGTGC	0.24
AGGTGCACGTGGGGTG	-0.15
TTAGGCACGTGTACAG	-0.18
GTGGTCACGTGGCGAT	0.07
TATATCACGTGGAGGA	0.05
TCGAGCACGTGGTTTT	-0.21
GTGTGCACGTGATTTG	0.12
TTGTTCACGTGCTGTC	0.1
CGTAGCACGTGTTCGT	-0.09
